According to PubChem BioAssay AID1345082 (National Center for Advancing Translational Sciences (NCATS), 2018):
The whole screen tested about 94,000 compounds, of which about 4,000 (4.3%) were called active. The inconclusive results got no clear call from the source; some entries with a clear call stand among them for comparison. Calls follow the shape of the dose curve; as a rule, active = well fitted inhibition curve with a large enough effect; inconclusive = small, poorly fitted or top-dose-only effect; inactive = no such curve, though single readings can be large or run the other way. Potencies beside an inconclusive call are fits to weak or partial responses and may not hold up.

Test: Cytotoxic Profiling in NIH 3T3 Cell Line of Diverse Libraries Using Quantitative High-Throughput Screening; also: nearly all actives have a fitted effect of over 55% in size
Conditions: NIH 3T3 viability, CellTiter-Glo ATP luminescence, 48-72 h; activity change, negative = cytotoxicity: at 96.7 µM (top of the series) unless noted; series mostly up to 96.7 µM
Outline: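 Cytotoxicity was measured by CellTiter-Glo ATP luminescence after 48 or 72 h compound exposure at 37 °C. Mouse NIH 3T3 fibroblasts were seeded at 400 cells/well and dosed by 23 nL pin transfer.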
% is scaled to controls: 0 for no effect and ±100 for the full control effect; potency is read from the fitted curve at half-maximal effect; tags tell the direction and shape of the fitted curve.

**Q.** With `COc1ccccc1-c1cccc(C(=O)N2CCN(C(=O)Cc3ccc(F)cc3)CC2)c1` as the molecule, how does the Potency read?
**A.** inconclusive: 50.1 µM [inhibitor, partial curve, poor fit]

**Q.** Which Potency does the source give for `Cn1cccc1CN1CCC2(CC1)NC(=O)c1ccccc1O2` here?
**A.** inconclusive: 100 µM [inhibitor, partial curve, poor fit]

**Q.** For `CN1CCN(Cc2nc(C3(O)CCN(C4CCCC4)CC3)cs2)CC1`, which Potency is on record?
**A.** inconclusive: 126 µM [inhibitor, single point]

**Q.** For `COc1ccccc1-c1cccc(C(=O)N2CCN(C(=O)c3cccc(Cl)c3)CC2)c1`, which Potency is on record?
**A.** inconclusive: 39.8 µM [inhibitor, partial curve]

**Q.** Which Potency does the source give for `O=C(O)COc1ccc(-c2nccc3c2C(=O)N(Cc2cccc(C(F)(F)F)c2)CC(CNC(=O)C2CCOCC2)O3)cc1` (stereo unspecified) here?
**A.** inconclusive: 44.7 µM [inhibitor, partial curve, poor fit]

**Q.** For `CCCn1ccnc1CN1CCc2nc(-c3ccc(Cl)cc3)[nH]c2C1`, which Potency is on record?
**A.** inconclusive: 39.8 µM [inhibitor, full curve, poor fit]

**Q.** Which Potency does the source give for `O=C(Cc1ccc2c(c1)OCCCO2)NC1CCCc2c1[nH]c1c(Cl)cccc21` (stereo unspecified) here?
**A.** inconclusive: 35.5 µM [inhibitor, full curve, poor fit]

**Q.** With `O=C(c1cccc(F)c1)N1CCCCCC1CN1CCOCC1` (stereo unspecified) as the molecule, how does the “activity change, negative = cytotoxicity” value read?
**A.** inactive: -11.3%

**Q.** For `CC(C)C(=O)Nc1cc(C2CC2)nn1C`, which “activity change, negative = cytotoxicity” value is on record?
**A.** inactive: -11.9% [at 174 µM]

**Q.** For `O=C(NCCOc1ccccc1)c1cnc2n1CCN(Cc1c[nH]c3ccccc13)CC2`, which Potency is on record?
**A.** inconclusive: 89.1 µM [inhibitor, partial curve, poor fit]

**Q.** With `CC(C)Oc1ccc(C(=O)N2Cc3cnn(Cc4ccc(F)cc4)c3C2)cc1` as the molecule, how does the Potency read?
**A.** inconclusive: 39.8 µM [inhibitor, partial curve, poor fit]

**Q.** For `OCC1CN(Cc2ccc(Br)cc2)CC12CCNCC2` (stereo unspecified), which Potency is on record?
**A.** active: 39.8 µM

**Q.** Which Potency does the source give for `Cc1ccccc1Cn1cc(-c2ccncc2)cc1C(=O)N1CCN(c2ccccc2)CC1` here?
**A.** inconclusive: 35.5 µM [inhibitor, partial curve, poor fit]

**Q.** Which Potency does the source give for `COc1cccc(CNC(=O)Nc2cccc(-c3ccc(N4CCOCC4)nn3)c2)c1` here?
**A.** inconclusive: 44.7 µM [inhibitor, partial curve, poor fit]

**Q.** With `CCOc1ccc(NC(=O)N2CCC(N3CC4CC(C3)[C@H]3CCCC(=O)N3C4)CC2)cc1` (stereo partly specified) as the molecule, how does the “outcome” value read?
**A.** inactive

**Q.** Which Potency does the source give for `O=C(NC1CCCCC1)N1Cc2[nH]cnc2C[C@H]1c1nc(-c2ccc(F)c(Cl)c2)no1` here?
**A.** inconclusive: 50.1 µM [inhibitor, partial curve, poor fit]

**Q.** With `Cc1noc([C@@H]2CC(F)(F)CN2C(=O)c2ccco2)n1` as the molecule, how does the “activity change, negative = cytotoxicity” value read?
**A.** inactive: 4.31%

**Q.** Which “activity change, negative = cytotoxicity” value does the source give for `CC(=O)N1CCC(NC[C@H]2COCc3nc4cc(C)ccc4n32)CC1` here?
**A.** inactive: -3.45% [at 138 µM]

**Q.** Which “activity change, negative = cytotoxicity” value does the source give for `O=C(NC1CCN(Cc2ccccc2)CC1)c1c(OCC2CC2)cc(=O)n2c1CCCCC2` here?
**A.** inactive: -3.97%

**Q.** With `COCc1ccc2c(c1)c(OC(C)(C)C(=O)NCC[S+](C)(=O)[O-])nn2Cc1cccnc1` as the molecule, how does the Potency read?
**A.** inconclusive: 50.1 µM [inhibitor, single point]

**Q.** Which Potency does the source give for `O=C(NC1CCCN(c2ccc3nnc(-c4ccccc4)n3n2)C1)c1ccccn1` (stereo unspecified) here?
**A.** inconclusive: 39.8 µM [inhibitor, partial curve, poor fit]

**Q.** For `Cc1ccc(-c2cc3c(=O)n(CCNC(=O)c4ccoc4)ccn3n2)c(C)c1`, which Potency is on record?
**A.** inconclusive: 11.2 µM [inhibitor, full curve, poor fit]

**Q.** With `O=C(NCc1ccccc1)c1ccc(-c2ccc(N3CCSCC3)nc2)cc1` as the molecule, how does the Potency read?
**A.** inconclusive: 44.7 µM [inhibitor, partial curve, poor fit]

**Q.** Which “activity change, negative = cytotoxicity” value does the source give for `COCCNC(=O)C1CCN(Cc2ccccc2-c2ccccc2F)CC1` here?
**A.** inactive: -13.3%

**Q.** For `O=C(CCC1CCN(C(=O)c2ccccc2)CC1)Nc1cccc(Cl)c1`, which Potency is on record?
**A.** inconclusive: 50.1 µM [inhibitor, partial curve, poor fit]

**Q.** With `O=C(CCc1conc1-c1ccccc1)N1CCN(c2ccccc2Cl)CC1` as the molecule, how does the Potency read?
**A.** inconclusive: 70.8 µM [inhibitor, single point]

**Q.** With `CNC(=O)c1cc(C2CC2)nc2onc(C3CCN(C(=O)c4ccncc4)C3)c12` (stereo unspecified) as the molecule, how does the “activity change, negative = cytotoxicity” value read?
**A.** inactive: -13.1%

**Q.** For `CSc1ccc(CNC(=O)c2cc3n(n2)CC(c2ccc(Cl)cc2)OC3)cc1` (stereo unspecified), which Potency is on record?
**A.** inconclusive: 44.7 µM [inhibitor, partial curve, poor fit]

**Q.** For `COc1cccc(C(=O)N2CCC3(CC2)NC(=O)N(c2cccc(F)c2)N3)c1`, which Potency is on record?
**A.** inconclusive: 28.2 µM [inhibitor, partial curve, poor fit]

**Q.** For `O=C(Cc1ccc(Cl)cc1)N1CCC2(CC1)NC(=O)N(c1ccc(F)cc1)N2`, which Potency is on record?
**A.** inconclusive: 25.1 µM [inhibitor, partial curve]

**Q.** For `Cc1ccc(-c2cccc(CN3CCCC3C(=O)NC3CC3)c2)cc1Cl` (stereo unspecified), which Potency is on record?
**A.** active: 35.5 µM

**Q.** For `COc1ccc2c(c1)nc1n2[C@@H](CNC(=O)c2ccncc2)COC1`, which “activity change, negative = cytotoxicity” value is on record?
**A.** inactive: -26.6% [at 174 µM]

**Q.** For `COC1CCN(CC2CCCCCN2C(=O)CCCc2ccccc2)CC1` (stereo unspecified), which Potency is on record?
**A.** inconclusive: 44.7 µM [inhibitor, partial curve, poor fit]

**Q.** With `CCNC(=O)N1CC[C@H]2CC(=O)N([C@H](C(N)=O)C(C)C)CC[C@H]2C1` as the molecule, how does the “activity change, negative = cytotoxicity” value read?
**A.** inactive: -1.76% [at 174 µM]

**Q.** With `CCN1c2cc(C(=O)Nc3cc(OC)c(OC)c(OC)c3)ccc2C(=O)N2CCCC21` (stereo unspecified) as the molecule, how does the Potency read?
**A.** inconclusive: 44.7 µM [inhibitor, partial curve, poor fit]

**Q.** Which “activity change, negative = cytotoxicity” value does the source give for `COc1ccc2[nH]cc(CCNC(=O)CC3=C4CCCCC4N(C)C3=O)c2c1` (stereo unspecified) here?
**A.** inactive: -14.7%

**Q.** Which Potency does the source give for `Cc1cc(C)cc(Nc2nc(C)cc(=O)n2CC(=O)Nc2cccc(Br)c2)c1` here?
**A.** inconclusive: 35.5 µM [inhibitor, partial curve]

**Q.** Which Potency does the source give for `Cc1ccc2c(c1)nc1n2[C@@H](CNCc2ccccc2)COC1` here?
**A.** active: 112 µM

**Q.** With `Cc1nc(-c2ccc(Cl)cc2)n(CC(=O)Nc2cccc(C(F)(F)F)c2)c(=O)c1CCO` as the molecule, how does the Potency read?
**A.** inconclusive: 44.7 µM [inhibitor, partial curve, poor fit]

**Q.** With `Cc1cnc(CCNC(=O)Cc2cccc(F)c2)n1Cc1ccc(F)cc1` as the molecule, how does the Potency read?
**A.** inconclusive: 50.1 µM [inhibitor, partial curve, poor fit]

**Q.** Which Potency does the source give for `O=C(NCC(F)F)C1CCCN(c2nccc(Nc3ccccc3F)n2)C1` (stereo unspecified) here?
**A.** inconclusive: 39.8 µM [inhibitor, partial curve, poor fit]
